Assay results taken from ChEMBL document CHEMBL4888484, “Replenishing the malaria drug discovery pipeline: Screening and hit evaluation of the MMV Hit Generation Library 1 (HGL1) against asexual blood stage Plasmodium falciparum ,using a nano luciferase reporter read-out” (2022).
Hit rate of the full screen: of about 150,000 compounds, about 540 (0.36%) showed an effect of 50% or more. The list shows a part of the results.

test system: Plasmodium falciparum; assay: Primary screen in NF54 nanoGlo assay, in single point, at 2uM, 72h; a lower Z score goes with more inhibition; assay type: functional, Erythrocyte; conditions: timepoint 72 hour

| SMILES | % Inhibition [%] | Z score |
| --- | --- | --- |
| Cn1cc(C2C[S+]([O-])CCN2C(=O)Cc2cccc(CC(F)(F)F)c2)cn1 (centres undefined) | -17 | 2.05 |
| C[C@H]1CCc2nc3ncn(Cc4cccc(C#N)c4)c(=O)c3cc2C1 | -15 | 1.95 |
| CCOC(=O)c1nc(-c2ccc(N3CCCCC3)nc2)no1 | 33 | -4.72 |
| CC[C@H](C)[C@H](NC(C)=O)C(=O)N1CCOC2CCN(C)CC21 (some centres undefined) | -1 | 0.16 |
| CCn1ncnc1CNC(=O)C(C)(C)N1CCOCC1 | -5 | 0.92 |
| Cc1ccc(C(=O)N2CCOCC2)cc1NC(=O)c1cnn(CC(F)(F)F)c1 | 0 | -0.09 |
| Cn1nc2c(c1NC(=O)c1c[nH]c(=O)c(C(F)(F)F)c1)CCCC2 | 5 | -0.88 |
| CCCn1cc(-c2cc(-c3cnn(C(C)C)c3)c(C#N)c(N)n2)c(C)n1 | -3 | 0.41 |
| O=C(NCCCn1ccnc1)c1cc(N2CC[C@@H]3CCCC[C@H]3C2)ccn1 | 6 | -1.06 |
| CCCN(Cc1nnc(-c2ccccc2)o1)S(=O)(=O)c1cnn(C(F)F)c1C | 44 | -6.35 |
| CC1OCCC1(C)NC(=O)Nc1cc(N(C)C)ncn1 (centres undefined) | -16 | 1.75 |
| CC(C)[C@@H]1N(C(=O)CS(=O)(=O)C2CC2)CC12CCCCC2 | -10 | 1.05 |
| Cc1nnc(N(C)Cc2ccc3c(c2)OCCO3)c(C#N)c1C | -15 | 2.39 |
| O=S(=O)(c1ccc(-c2cc(C(F)(F)F)[nH]n2)o1)N1CCC(c2cc[nH]n2)CC1 | -7 | 1.07 |
| CC(C)(C)c1noc(Cn2ccnc2[C@@H](O)c2ccco2)n1 | 15 | -1.85 |
| CC(C)(C)[C@H](CCO)NC(=O)c1cc(F)cc(F)c1 | -14 | 1.63 |
| COC(=O)C[C@@H](c1cnn(C)c1C)c1c(C)[nH][nH]c1=O | 7 | -0.86 |
| CC[C@H](C)n1nnc2cc(S(=O)(=O)N3CCC(C(=O)NCc4cccc(F)c4)CC3)ccc21 | -18 | 2.55 |
| O=C(CN1CCOCC1)Nc1cccc2nonc12 | -13 | 1.38 |
| COCCN1C[C@H](O)C(C)(C)COCCC[C@H]2CN(Cc3ccc(S(C)(=O)=O)cc3)CC[C@H]2CC1=O | -12 | 1.5 |
| Cc1csc(C2(NC(=O)[C@@H]3CCC(=O)N3)CCCCCC2)n1 | -8 | 1.2 |

| SMILES | % Inhibition [%] | Z score |
| --- | --- | --- |
| C[C@@H](c1ccncc1)N(C)Cc1ccc2cccc(F)c2n1 | -15 | 1.5 |
| CN1CCN(CC2(CNc3nnc(C4CCC4)o3)CC2)CC1 | 6 | -1.02 |
| CC(=O)Nc1ccc(Oc2nnc(Oc3ccc(NC(C)=O)cc3)c3ccccc23)cc1 | -8 | 0.83 |
| O=C(NCCc1cnc2c(Cl)cnn2c1)[C@@H]1CCCO1 | -11 | 1.81 |
| Cc1n[nH]c(C)c1S(=O)(=O)NC1CCNCC1C (centres undefined) | -15 | 1.73 |
| CC(C)Oc1ccc(C[C@H]2CCC(=O)N(C)C2=O)cc1 | -3 | 0.36 |
| COc1cc(Br)c(F)cc1CN | -10 | 1.29 |
| CCN(CC(=O)NC(=O)Nc1ccccc1F)[C@@H](C)c1cccc(OC)c1 | -6 | 1.05 |
| O=C(N1CCOCC1)[C@]1(F)CCCN(Cc2ccncc2)C1 | -2 | 0.33 |
| COc1cncc(CCC(=O)N2CCN(Cc3ccccn3)C[C@@H]2C)c1 | -5 | 0.98 |
| COc1ccccc1N1CCN(C(=O)[C@H](C)n2ccnc2)CC1 | -19 | 2.94 |
| CCOC(=O)c1onc(-c2ccccc2)c1NC(=O)[C@H]1CCCO1 | -2 | 0.26 |
| COc1ccc2c(c1)OC(C)(C)C[C@@H]2NC(=O)N1CCc2[nH]nc(C)c2C1 | -1 | 0.26 |
| CC(C)Cc1nc(CN(C)C2CCN(c3ncnc4[nH]cnc34)CC2)no1 | -13 | 1.65 |
| c1ccc2c(CCNCc3cnc(N4CCOCC4)nc3)c[nH]c2c1 | -13 | 1.71 |
| Cn1cc(CN(C(=O)CN2C[C@@H](Cc3ccccc3)CC2=O)C2CC2)cn1 | 1 | -0.09 |
| COc1ccccc1N1CCN(C(=O)c2ccc3c(=O)n4c(nc3c2)CCCCC4)CC1 | -7 | 0.71 |
| CCOc1ccc(-c2cn3ccn(-c4ccc(Cl)cc4)c(=O)c3n2)cc1 | 29 | -3.8 |
| COCC(=O)NC(C)(C)CN(C)Cc1ccccc1 | -5 | 0.48 |
| COc1ccc([C@@]2(C(=O)N3CC(O)C3)CC2(C)C)cc1 | 0 | -0.02 |
| CC[C@H]1CN(C(=O)c2c[nH]c3cccnc23)CCCO1 | -1 | 0.11 |

| SMILES | % Inhibition [%] | Z score |
| --- | --- | --- |
| CN1CCCN(CC(=O)N2CCN(C)C[C@@H]2c2ccccc2)CC1 | -10 | 1.28 |
| Cc1ccc(CNC(=O)N2CCS(=O)(=O)CC[C@@H]2C)c2ccccc12 | 32 | -3.97 |
| O=C(N[C@@]1(C(F)(F)F)N=C(c2ccccc2)N(C2CCCCC2)C1=O)c1cccnc1 | -5 | 0.51 |
| C[C@H](NC(=O)c1ccc2[nH]cnc2c1)C(=O)N1CCCCC1 | 0 | -0.06 |
| COc1cc(-c2onc(C)c2C(=O)NC2CC(C)(C)N(C)C(C)(C)C2)cc(OC)c1OC | -12 | 2.26 |
| CC1CN(CC2CCCO2)CCC1NC(=O)c1cc(F)ccc1O (centres undefined) | -8 | 0.74 |
| Cc1cc(N2CCN(C)C(=O)[C@@H]2C)nc(N)n1 | 15 | -2.17 |
| Cc1c(CNc2ccc(NC(=O)c3ccccc3)nc2)cc(C#N)n1C | -10 | 0.95 |
| O=c1c(Br)cncn1CCOc1ccccc1 | -4 | 0.52 |
| COc1ccc(OC)c(-c2csc(NC(=O)CCc3c(C)[nH]c(=O)c(C#N)c3C)n2)c1 | 1 | -0.28 |
| O=C([C@@H]1Cc2ccccc21)N(Cc1ccccc1)CC1CCOCC1 | -16 | 1.74 |
| Cc1ccc(-c2nc(C)c(C(=O)O)cc2C#N)c(-n2cccn2)c1 | -9 | 1.5 |
| Cc1nc2ccccc2n1CCNC[C@H]1CCC=CO1 | -11 | 1.52 |
| CC1(C)C[C@@H](c2noc(-c3cc4c(s3)CCOC4)n2)CCO1 | 8 | -1.46 |
| CCn1nc(C(=O)N2CCCCCC2)c2c1CC[C@H](NC1CCCC1)C2 | -7 | 0.88 |
| C[C@H](OC1CCCCCC1)C(=O)Nc1nc2ncccc2[nH]1 | 26 | -2.94 |
| CC(=O)c1ccc(S(=O)(=O)N2CCN(c3ncccc3NC(=O)c3ccc4c(c3)OCO4)CC2)cc1 | 7 | -0.77 |
| CCn1nncc1CNc1ncccc1Cl | -6 | 0.86 |
| CC[C@](C)(O)CNC(=O)c1ccc(C)cc1F | 10 | -1.45 |
| CC(C)C(=O)N1CCc2ccc(OCc3nc(C(=O)Nc4ccc(F)cc4)cs3)cc2[C@@H]1c1cccc(F)c1 | -9 | 1.45 |
| COc1ccc(CNC(=O)CCc2nc3c(C)nn(-c4ccc(C)cc4)c3n(C)c2=O)cc1 | 14 | -2.07 |

| SMILES | % Inhibition [%] | Z score |
| --- | --- | --- |
| CCc1cc(C)c(C(=O)N(C)Cc2nccn2C)o1 | -8 | 1.19 |
| CCn1c(C)c(-c2nc(C3CC3)no2)c(S(=O)(=O)N[C@@H](C)c2ccccn2)c1C | -2 | 0.37 |
| COc1ccc(CN2CCCN(Cc3ccc(OC)cc3)C2c2ccccc2Br)cc1 | 35 | -3.97 |
| c1cc2c(nc1CNCc1cn3c(n1)CCCC3)CCC2 | 18 | -2.23 |
| C[C@](O)(CNc1cccc(Br)c1C#N)C1CC1 | 17 | -2.21 |
| CCc1nc(CN(C)CCCn2cccn2)n[nH]1 | -11 | 1.29 |
| COc1cc(C(=O)Nc2nnc(-c3cc(C)nn3C)o2)cc(OC)c1OC | -2 | 0.35 |
| CCN1CCc2nc(-c3ccc(F)cc3)n(CC(=O)Nc3cc(C)ccc3C)c(=O)c2C1 | -1 | 0.16 |
| Cc1cnc(C(=O)N2CCn3nc(CCC(=O)NC4CC4)cc3C2)cn1 | -9 | 1.6 |
| COc1cc(F)c(CN2CCC([C@H](C)N3CCN(C)CC3)CC2)cc1OC | -20 | 1.85 |
| C[C@H]1[C@@H](NC(=O)Nc2ccncc2)CCS1(=O)=O | 4 | -0.59 |
| COCCC(C)NC(C)c1ccc(S(N)(=O)=O)cc1F (centres undefined) | 0 | 0.04 |
| Cc1ccc(C(=O)N2C[C@H]3CCN(C(C)C)C[C@@]3(CO)C2)cc1F | -18 | 2.16 |
| CCOC(=O)C1CCN(C(=O)c2nn(-c3ccc(C)c(Cl)c3)c(=O)n(Cc3cccc(C)c3)c2=O)CC1 | -15 | 1.42 |
| Cc1cc(C(=O)Nc2cc(-c3ccccc3Br)no2)on1 | -5 | 0.82 |
| COc1ccc(-n2nnc3c(=O)n(Cc4cccc5ccccc45)cnc32)cc1OC | -10 | 1.88 |
| O=C(c1cc(S(=O)(=O)N2CCCCC2)ccc1N1CCCC1)N1CCCc2ccccc21 | -10 | 1.69 |
| CCN(CC)S(=O)(=O)c1ccc(F)c(C(=O)OCCNC(C)=O)c1 | -10 | 0.84 |
| CCCN(C(=O)c1[nH]nc(CC)c1C)[C@H]1CCCC[C@@H]1O | -8 | 0.78 |
